Source: publication PMC4336329 (PLoS ONE, 2015)
Among all 310,000 compounds or so, about 2,200 (0.71%) showed an effect of 50% or more. The effect is printed as a negative number. The list shows a part of the results.

These compounds were tested against human ether-à-go-go-related gene (hERG) potassium channel (human, UniProt Q12809) (assay: primary screen, population patch clamp on CHO cells stably expressing hERG).
human ether-à-go-go-related gene (hERG) potassium channel, sequence (Q12809 whole entry, looked up): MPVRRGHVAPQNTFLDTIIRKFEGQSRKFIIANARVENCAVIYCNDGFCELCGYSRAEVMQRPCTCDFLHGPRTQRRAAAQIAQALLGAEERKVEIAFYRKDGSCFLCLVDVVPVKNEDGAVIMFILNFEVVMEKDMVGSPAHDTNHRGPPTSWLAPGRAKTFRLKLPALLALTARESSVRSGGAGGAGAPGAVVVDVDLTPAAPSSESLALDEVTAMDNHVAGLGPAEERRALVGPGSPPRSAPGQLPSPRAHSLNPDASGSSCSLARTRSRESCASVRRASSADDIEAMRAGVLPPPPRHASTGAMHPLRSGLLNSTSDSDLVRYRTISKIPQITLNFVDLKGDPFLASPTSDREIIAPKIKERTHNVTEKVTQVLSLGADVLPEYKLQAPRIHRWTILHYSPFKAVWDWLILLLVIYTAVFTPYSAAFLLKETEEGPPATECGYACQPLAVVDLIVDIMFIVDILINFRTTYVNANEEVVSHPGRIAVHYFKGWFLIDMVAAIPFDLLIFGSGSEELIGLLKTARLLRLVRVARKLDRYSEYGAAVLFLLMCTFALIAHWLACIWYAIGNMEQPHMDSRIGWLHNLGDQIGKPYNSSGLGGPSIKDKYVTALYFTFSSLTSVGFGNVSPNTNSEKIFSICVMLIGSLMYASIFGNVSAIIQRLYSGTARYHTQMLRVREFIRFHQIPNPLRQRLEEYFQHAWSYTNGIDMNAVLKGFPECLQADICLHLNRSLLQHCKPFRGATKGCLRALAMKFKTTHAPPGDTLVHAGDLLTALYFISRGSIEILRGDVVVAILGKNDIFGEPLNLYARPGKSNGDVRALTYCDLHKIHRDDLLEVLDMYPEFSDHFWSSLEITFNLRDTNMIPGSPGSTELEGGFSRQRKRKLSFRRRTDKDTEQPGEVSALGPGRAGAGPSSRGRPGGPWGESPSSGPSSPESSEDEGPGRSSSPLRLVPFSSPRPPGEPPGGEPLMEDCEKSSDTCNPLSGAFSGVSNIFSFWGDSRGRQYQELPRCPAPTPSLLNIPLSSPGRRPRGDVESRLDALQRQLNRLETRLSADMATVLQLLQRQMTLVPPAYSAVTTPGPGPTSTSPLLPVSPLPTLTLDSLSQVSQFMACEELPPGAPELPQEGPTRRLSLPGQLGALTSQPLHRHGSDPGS

Row | SMILES | hERG current change (%, negative = inhibition) at 1uM [%]
1 | CCC(=O)N1CCC(C(N)=O)(N2CCCCC2)CC1 | 1.73
2 | Nc1nc(C(F)(F)F)cc(=O)n1N | 6.55
3 | COC(=O)c1ccc(NC(=O)CN2CCN(c3cccc(Cl)c3)CC2)cc1 | 5.72
4 | O=C(NCc1ccc2c(c1)OCO2)C1CC(=O)N(CCc2ccc(F)cc2)C1 (stereo not shown) | -13.1
5 | O=C(CSc1nccc(=O)[nH]1)Nc1ccc(N2CCOCC2)cc1 | 1.7
6 | COc1ccc(N2C(=O)CC(Sc3nc(C)cc(C)n3)C2=O)cc1OC (stereo not shown) | 13.5
7 | CC(=O)C1=NN(c2ccccc2)C(c2ccc3c(c2)OCO3)N1c1ccccc1 (stereo not shown) | 9.59
8 | Cc1c(Cl)cccc1NC(=O)CCC(=O)c1cccs1 | 14.1
9 | Cc1ccc(S(=O)(=O)N(C)C)cc1NC(=S)NC(=O)C12CC3CC(CC(C3)C1)C2 | 11.1
10 | COc1cccc(CNC(=O)c2cc(S(=O)(=O)N3CCCCC3)c[nH]2)c1 | 11.9
11 | CCCCn1c(N)c(N(CC(C)C)C(=O)c2ccc(-c3ccc([N+](=O)[O-])cc3)o2)c(=O)[nH]c1=O | -3.68
12 | Cc1cc(C)c(OCCNCc2ccccc2)c(C)c1.O=C(O)C(=O)O | 16.1
13 | CNc1nc(SC)nc(N(C)C#N)n1 | 4.83
14 | Cc1cc(NS(=O)(=O)c2ccc(N3C(=O)C4C5C=CC(C5)C4C3=O)cc2)nc(C)n1 (stereo not shown) | 13.3
15 | O=C(CN(c1ccc(F)cc1)S(=O)(=O)c1ccc2c(c1)OCCO2)Nc1ccccc1 | 0.422
16 | O=[N+]([O-])c1ccc(-c2nc(Nc3ccc(O)cc3)c3ccccc3n2)cc1 | 13
17 | O=C(NCc1ccc2c(c1)OCO2)C1CC(=O)N(C2CCCCCC2)C1 (stereo not shown) | 3.61
18 | CCc1cc2c(=O)c(-c3nc4ccccc4n3C)c(C)oc2c(CN(CC)CC)c1O | 2.2
19 | COc1ccccc1NC(=O)CC12CC3CC(CC(Br)(C3)C1)C2 | 10.8
20 | Cn1c(CNC(=O)c2ccco2)nnc1SCC(=O)Nc1cccc(Br)c1 | -1.61
21 | COc1ccccc1C(=O)Nc1ccc2c(c1)OCO2 | 6.37
22 | CC(C)(C)OC(=O)NCCCC[C@@H](C(=O)N1CCN(C(=O)OC(C)(C)C)CC1)n1cc(CCC(=O)O)nn1 | 7.72

Row | SMILES | hERG current change (%, negative = inhibition) at 1uM [%]
23 | Cc1cc(C(=O)N/N=C/c2ccc(OC(=O)c3ccccc3Br)cc2)n[nH]1 | 6.26
24 | Cc1nn(C)cc1CNCc1ccc(OCC(O)CN(C)Cc2ccccc2)cc1 (stereo not shown) | 8.6
25 | COc1ccc(C2CC(c3ccccc3)=NN2c2ccc(S(N)(=O)=O)cc2)cc1 (stereo not shown) | 13.9
26 | COc1ccc(CCNCc2ccc(OC)c(OC)c2OC)cc1 | 1.48
27 | COC(=O)COc1cccc(NS(=O)(=O)c2ccc(NC(C)=O)cc2)c1 | 14.8
28 | Cc1ccsc1C(=O)Nc1ccc(F)c([N+](=O)[O-])c1 | 10.9
29 | COc1cc(/C=C/C(=O)c2ccc([N+](=O)[O-])o2)ccc1O | 16.4
30 | COc1cccc(CN2CC(C(=O)NCCC3=CCCCC3)CCC2=O)c1 (stereo not shown) | -1.22
31 | C(=C\n1nnc2ccccc21)/c1ccccn1 | 12.3
32 | COc1ccccc1N1CCN(S(=O)(=O)CCNC(=O)C2CCCCC2)CC1 | 1.78
33 | CC1S/C(=N/N=C/c2ccco2)N(Cc2ccccc2)C1=O (stereo not shown) | 13.1
34 | O=C1NC2(CCCCC2)C(=O)N1/N=C/c1ccc(O)cc1O | -0.395
35 | O=C1C(C=Nc2ccccc2O)=C(O)c2ccccc21 | 8.45
36 | COc1ccc(NC(=S)NCCN2CCC(C)CC2)cc1Cl | 25.3
37 | Cc1sc(/N=C/c2c(O)ccc3ccccc23)c(C#N)c1C | 17.9
38 | CC(OC(=O)C1=COCCO1)C(=O)Nc1ccccc1C#N (stereo not shown) | 10.1
39 | CC(NS(=O)(=O)c1ccccc1)C(=O)NCCc1ccccn1 (stereo not shown) | 5.82
40 | N#Cc1nc(-c2ccc(F)cc2)oc1NCCCn1ccnc1 | -21.9
41 | O=C(Nc1nnc(C2CC2)s1)c1cccc(S(=O)(=O)N2CC(c3ccccc3)CC2=O)c1 (stereo not shown) | 2.33
42 | CC(=O)Nc1ccc(OCC(O)Cn2c(CO)nc3ccccc32)cc1 (stereo not shown) | 10.9
43 | O=C(CCC(=O)OCC(=O)c1ccc(-c2ccccc2)cc1)Nc1cccc(Cl)c1 | 1.42
44 | COc1ccc(C(=O)CSc2nc3cccnc3n2C)cc1 | 8.75

Row | SMILES | hERG current change (%, negative = inhibition) at 1uM [%]
45 | CC(=O)NCc1ccc(C(=O)COC(=O)COc2ccccc2)s1 | 10.8
46 | CCC1(C)Cc2c(sc3nc(SCC(=O)c4ccccc4)[nH]c(=O)c23)CO1 (stereo not shown) | 4.26
47 | COc1ccc(Oc2nc3ccccc3n(C)c2=O)cc1 | -7.95
48 | COc1ccccc1Cn1c(=S)[nH]c2cc(C(=O)NCc3cccnc3)ccc2c1=O | 12.9
49 | COc1cccc(C(=O)OCC(=O)Nc2sc3c(c2C(N)=O)CCC3)c1O | 10.7
50 | O=C1C(c2ccc(F)cc2)N(Cc2ccc3c(c2)OCO3)C(=O)CN1C1CCCCCC1 (stereo not shown) | -9.14
51 | c1ccc(-c2noc(COc3ccc4c(c3)OCO4)n2)cc1 | 14.9
52 | Nc1c(C(=O)Nc2ccccc2)c2nc3ccccc3nc2n1-c1ccc(O)cc1 | 10.8
53 | Cc1cc2ncn(C(=O)N3CCOCC3)c2cc1C | 14.7
54 | C/C(=N\NC(=O)c1cc(-c2ccccn2)nc2ccccc12)c1cccc([N+](=O)[O-])c1 | 2.45
55 | CCc1cc(C(=O)OC)c(NC(=O)CC2Nc3cc(C)c(C)cc3NC2=O)s1 (stereo not shown) | 11
56 | Cc1ccc(CN(Cc2ccco2)C(=S)Nc2ccccc2C)cc1 | 7.75
57 | COCCNC(=S)NNC(=O)c1cc(C2CC2)nc2ccccc12 | 14.8
58 | COC(=O)c1c(NC(=O)c2cccc([N+](=O)[O-])c2)sc(C(N)=O)c1C | 9.93
59 | O=S(=O)(c1ccccc1F)N1CCCc2ccccc21 | 12.1
60 | O=C(NC(=S)Nc1ccccc1N1CCOCC1)c1ccc(Br)cc1 | 10.9
61 | Cn1c(C(O)c2ccccc2F)nc(Cl)c1Cl (stereo not shown) | 10.4
62 | CC(=O)NNS(=O)(=O)c1ccccc1[N+](=O)[O-] | 5.24
63 | Cn1nc(NC(=O)C(F)(F)F)c2ncc(-c3ccc(Cl)cc3)nc21 | 14.4
64 | C/C=C/Cn1c(SC)nc2c1c(=O)[nH]c(=O)n2C | 2.51
65 | CNC(=O)NC(=O)C(C)OC(=O)c1c2c(nc3ccccc13)/C(=C/c1cccs1)CC2 (stereo not shown) | 0.0128
66 | COc1cc(CN2CCCN(C)CC2)c([N+](=O)[O-])cc1OC | 8.99

Row | SMILES | hERG current change (%, negative = inhibition) at 1uM [%]
67 | CCOCCCNC(=O)CCCC1=NS(=O)(=O)c2ccccc2N1 | 1.78
68 | COc1ccccc1CN1CCNC(=O)C1CC(=O)NC1CCCCCC1 (stereo not shown) | 6.62
69 | Cc1ccc(SCCN2CCC(NC(=O)OCc3ccccc3)CCC2=O)cc1 (stereo not shown) | -4.91
70 | Cc1ccc(S(=O)(=O)N2CCN(C(=O)CN3C(=O)c4ccccc4C3=O)CC2)c(C)c1 | 10.1
71 | COC(=O)Sc1nnc(-c2ccc(Br)cc2)o1 | 12.1
72 | COC(=O)CCSCC(=O)Nc1nnc(C)s1 | 7.19
73 | CC1CCN(C(=O)C2(NC(=O)Nc3cccc(F)c3)CCCCC2)CC1 | 11.7
74 | CN(C)S(=O)(=O)c1ccc(S(=O)(=O)NC2CCOC(C)(C)C2)cc1 (stereo not shown) | 6.09
75 | O=C(Nc1ccc(Cl)cc1)c1cccc(NC2=NC3CS(=O)(=O)CC3S2)c1 (stereo not shown) | -0.35
76 | CCc1ccc(NC(=O)[C@@H](NC(=O)[C@@H]2Cc3ccccc3CN2)C(C)CC)cc1 (stereo partly shown) | 17.3
77 | Cc1ccc(C(C(=O)Nc2ccc3c(c2)OCO3)N(C)C(=O)/C=C\c2ccc3c(c2)OCO3)cc1 (stereo not shown) | 12.3
78 | COc1ccccc1COC(=O)c1ccc(S(=O)(=O)N2CCOCC2)cc1 | 13.1
79 | Cc1nn(C)cc1NC(=O)c1ccc(Br)o1 | 11.8
80 | N#Cc1nc(Cc2ccccc2)oc1NCCCn1ccnc1 | 2.33
81 | COc1ccc(CCNc2oc(-c3ccc(OC)c(OC)c3)nc2C#N)cc1 | 17.2
82 | CCC1(CC)C(=O)C2=C3C1[C@H](C(=O)OC)C=C(C(=O)OC)C[C@H]3[C@H]1C(=O)NC(=O)[C@H]1[C@H]2C (stereo partly shown) | 8.51
83 | Nc1cc(=O)[nH]c(SCc2nnc(-c3ccccc3)o2)n1 | 7.82
84 | O=C(O)c1ccc(-n2nnnc2Oc2cccc3cccnc23)cc1 | 10.9
85 | O=C(Nc1ccon1)c1sc2cc(Cl)ccc2c1Cl | 15.6
86 | Cc1cccc(NC(=S)NC2CC3CCC(C2)N3Cc2ccco2)c1 (stereo not shown) | -15.7
87 | Cc1ccc(NC(=O)c2ccccc2SCC(=O)N2CCCC2)cc1S(=O)(=O)N(C)C | 10.7
88 | Cc1ccc(N(C(=O)c2csnn2)C(C(=O)NC2CCCCC2)c2ccncc2)c(C)c1 (stereo not shown) | 12.7
